Test results: PubChem BioAssay AID504706 (National Center for Advancing Translational Sciences (NCATS), 2011)
Among all 320,000 compounds or so, about 200 (0.062%) were called active. The inconclusive results got no clear call from the source; some entries with a clear call stand among them for comparison. The call rests on the fitted dose curve; in most records, active means well fitted activation curve with a large enough effect; inconclusive means small, poorly fitted or top-dose-only effect; inactive means no such curve, though single readings can be large or run the other way. Potencies of inconclusive entries are left out as doubtful fits.

Experiment: qHTS assay for re-activators of p53 using a Luc reporter; further: nearly all actives have a fitted effect of over 45% in size; on activity change, positive = activation: % of control where 0% means no effect
Conditions: H1299 p53-A138V BP100-luciferase reporter, luminescence, 24 h; series mostly up to 92.2 µM; activity change, positive = activation: at the top concentration
Outline: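 p53-null H1299 cells stably carrying temperature-sensitive p53-A138V and a BP100-luciferase reporter were pinned with compounds (4-point, 1:5 series) and held 24 hrs at 37 deg C. Luminescence was read 10 min after detection reagent.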
Potency means the concentration at half of the fitted maximal effect; tags describe the fitted curve by direction and shape.

| Structure (SMILES) | activity change, positive = activation | Potency |
| --- | --- | --- |
| C=C(C)C(=O)Nc1cccc(C2=NOC3(C2)C[C@@H](C(N)=O)N(C(=O)/C(C)=C/C)C3)c1 (some centres not stated) | inactive: -3.09% | – |
| N#C/C(=C/c1ccc(N2CCCCC2)o1)c1cccc(F)c1 | – | inconclusive [activator, full curve, poor fit] |
| Cc1ccc(C(O)c2nccn2C)o1 (configuration not stated) | inactive: 6.35% | – |
| NNC(=O)c1cc(C2CC2)nc2ccc(Br)cc12 | inactive: 1.92% | – |
| COC1CCCCC1NS(=O)(=O)c1ccc(Cl)cc1 (configuration not stated) | inactive: -3.26% | – |
| CCC(C)N1CCN(C(=O)C2CCN(S(=O)(=O)c3c(C)noc3/C=C/c3ccco3)CC2)CC1 (configuration not stated) | inactive: 6.01% | – |
| CCCCCCSc1nsc(NC(=O)CCC)n1 | – | inconclusive [activator, partial curve, poor fit] |
| O=C(N/N=C/c1cccc(F)c1)c1c(O)c2ccccc2[nH]c1=O | – | inconclusive [activator, single point] |
| CCN(CC)S(=O)(=O)c1ccc(Cl)c(NC2=NCCCCC2)c1 | – | inconclusive [activator, single point] |
| COC(=O)c1ccc(CSc2ncn[nH]2)o1 | – | inconclusive [activator, single point] |
| O=C(CN(CC1CCCO1)C(=O)CCC(=O)Nc1ccccn1)NCC1CCCO1 (configuration not stated) | – | inconclusive [activator, partial curve, poor fit] |
| CN(C)CCN1C(=O)C(=O)/C(=C(/O)c2ccc(F)cc2)C1c1ccccc1F (configuration not stated) | – | inconclusive [activator, single point] |
| CCN(c1ccccc1)c1nc2ccsc2c(=O)s1 | – | inconclusive [activator, full curve, poor fit] |
| O=C(Cn1cnc2ccccc2c1=O)N1CCN(Cc2ccccc2)CC1 | inactive: -11.2% | – |
| O=c1c2[nH]c3ccc(F)cc3c2ncn1CCCN1CCOCC1 | inactive: -4.63% | – |
| CN(C)S(=O)(=O)c1cccc(NC(=S)N/N=C/c2cc(Br)ccc2O)c1 | – | inconclusive [activator, single point] |
| O=C(Nc1ccn(Cc2ccccc2)n1)c1cccc(F)c1 | – | inconclusive [activator, single point] |
| O=C(Nc1ccon1)C(Sc1ccccc1)c1ccccc1 (configuration not stated) | inactive: -1.99% | – |
| CC(=O)Oc1ccc(N2C(=O)CCC2=O)cc1 | inactive: -1.29% | – |
| COc1ccc(-c2nnc(OC)c3ccccc23)cc1 | – | inconclusive [activator, single point] |
| CN(C)C1=NCCN1CC1CCCCCC1 | – | inconclusive [activator, single point] |
| CC(=O)c1sc(NC(=O)C2COc3ccccc3O2)nc1C (configuration not stated) | – | inconclusive [activator, partial curve, poor fit] |
| COc1c(OC(C)=O)ccc(/C=C/c2ccc3cccc(OC)c3n2)c1[N+](=O)[O-] | – | inconclusive [activator, full curve, poor fit] |
| O=C(N/N=C/c1ccnc2ccccc12)c1ccccc1O | inactive: 18.2% | – |

| Structure (SMILES) | activity change, positive = activation | Potency |
| --- | --- | --- |
| Cn1c(CCNC(=O)c2ccco2)nc2cc([N+](=O)[O-])ccc21 | – | inconclusive [activator, partial curve, poor fit] |
| O=C1/C(=C/c2ccc(Cl)cc2)SC(=S)N1CCC(=O)N1CCCCC1CCO (configuration not stated) | – | inconclusive [activator, single point] |
| Cc1cccc(OCCOc2ccccc2C=C(C#N)C#N)c1 | – | inconclusive [activator, full curve, poor fit] |
| O=C(O)CC(Cc1ccccc1)c1ccc2c(c1)OCO2 (configuration not stated) | – | inconclusive [activator, partial curve, poor fit] |
| CC1CCN(C(=O)COC(=O)COc2ccccc2C#N)CC1 | – | inconclusive [activator, partial curve, poor fit] |
| O=C(NCc1cccc(Cl)c1)c1ccc2c(c1)OCCO2 | – | inconclusive [activator, single point] |
| COc1ccc(C)cc1-n1cnnn1 | inactive: -1.1% | – |
| CCN1CCc2c(sc(NC(=O)c3ccc(S(=O)(=O)N4CCCC4)cc3)c2C(=O)NC)C1 | – | active: 35.5 µM |
| O=[N+]([O-])c1ccccc1S(=O)(=O)Nc1cccnc1 | – | inconclusive [activator, single point] |
| O=C(Cc1ccc2c(c1)OCCO2)c1c(O)cc(O)cc1O | – | inconclusive [activator, partial curve, poor fit] |
| O=[N+]([O-])c1cc(CN2CCN(c3cccc(C(F)(F)F)c3)CC2)c2cccnc2c1O | – | inconclusive [activator, single point] |
| CC(C)CC(=O)Nc1ccc2nn(-c3ccccc3)nc2c1 | – | inconclusive [activator, partial curve, poor fit] |
| Nn1c(SCC(=O)Nc2ccccc2F)nnc1-c1cccnc1 | – | inconclusive [activator, single point] |
| CCOC(=O)N/N=C/c1ccc(F)cc1F | – | inconclusive [activator, partial curve, poor fit] |
| COc1cccc(-c2nc(NC(C)(C)C)c3ccccc3n2)c1O | inactive: 19.5% | – |
| CC(C)(C)c1ccc(C(=O)NNC(=O)CCC(=O)Nc2ccccc2)cc1 | – | inconclusive [activator, single point] |
| CSc1nc2ccc(Nc3nc(N4CCOCC4)nc(N4CCOCC4)n3)cc2s1 | inactive: -18.5% | – |
| CCOC(=O)C1(Cc2cccc(OC)c2)CCN(Cc2cc(OC)ccc2OC)CC1 | inactive: 1.46% | – |
| O=C(OCc1nc2ccccc2s1)c1cnccn1 | – | inconclusive [activator, partial curve, poor fit] |
| CCCOc1cccc(C(=O)NC(=S)Nc2ccccc2)c1 | – | inconclusive [activator, partial curve, poor fit] |
| O=C(Cc1cn2ccsc2n1)OCc1ccccc1 | inactive: 12.8% | – |
| CCOc1ccc(N=C2NC(=O)S/C2=C\c2ccc(Cl)cc2)cc1 | inactive: -9.32% | – |
| Cc1ccc2cc(/C=N/Nc3ccc(C(=O)O)cc3)c(Cl)nc2c1 | – | inconclusive [activator, partial curve, poor fit] |
